The values below come from PubChem BioAssay AID1508624 (National Center for Advancing Translational Sciences (NCATS), 2021).

Among all 48,000 compounds or so, about 120 (0.25%) were called active. Not shown: some 4% with an inconclusive outcome. Calls follow the shape of the dose curve; as a rule, active = well fitted activation curve with a large enough effect; inconclusive = small, poorly fitted or top-dose-only effect, or another doubt; inactive = no such curve, though single readings can be large or run the other way. The entries are a selection whose mix differs from that of the whole data set. Where no call is shown, the source filed none.
Potency is read from the fitted curve at half-maximal effect.

The experiment in a line: Primary qHTS for Identification of Small Molecule Activators of Huntingtin-Antisense Promoter Activity. Also: nearly all actives have a fitted effect of over 55% in size. Conditions: HEK293 HTT-AS promoter firefly luciferase reporter, 24 h; activity change, positive = activation: at 57.5 µM (top of the series), percent change from vehicle, -100% = no light. In a few lines:
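Quantitative HTS used concentration series of up to 57.5 uM final on HEK293 luciferase reporter cells, 24 h at 37 degrees C. Readout was Dual-Glo firefly luminescence.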
Consider `Cc1ccc(NS(=O)(=O)c2ccc(-c3cc(C)no3)cc2)c(Br)c1`, for which the activity change, positive = activation is -28.6%. The same measure, in the same setting: the figure for `COc1ccccc1CNC(=O)CCc1c(C)c2ccc(OC)c(C)c2oc1=O` is -3.02%; for `COc1ccc(NC(=O)c2c(C(=O)Nc3ccccc3)sc3nc(C)cc(=O)n23)cc1` it is -4.77%.

Consider `COc1c(C)cc(S(=O)(=O)Nc2cccc(-c3ccc(N4CCOCC4)nn3)c2)c(C)c1C`, for which the activity change, positive = activation stood at 21.4%. For `Cc1cc(O)c2c(C)c(CC(=O)N3CCCCC3)c(=O)oc2c1`, the activity change, positive = activation turned out to be 12.8%. Same read-out and setting: in the case of `CCOc1ccc(C2C(=O)N(C3CCCCC3)CC(=O)N2CCC2=CCCCC2)cc1OC` (stereo not drawn) it was -7.57%; in that of `COc1ccccc1CN1C(=O)C(=O)c2cccc(C)c21`, inactive: -12.2%; in that of `CC(=O)Nc1ccc(S(=O)(=O)Nc2cccc(-c3ccc(N4CCCCCC4)nn3)c2)cc1`, 42.6%. On the same count and under the same terms, in the case of `CC(NC(=O)CSc1nc(-c2cccc(Cl)c2)nc2cc(=O)[nH]n12)c1nc2ccccc2n1C` (stereo not drawn) it was -10.4%. Turning to `COc1ccc(-c2nc3ccccc3s2)cc1NC(=O)c1cccc([N+](=O)[O-])c1C`, the Potency was active: 2 µM.

Take `CCCOc1ccc(NC(=O)CC2C(=O)N(c3ccc(F)cc3)C(=O)N2CC(C)C)cc1` (stereo not drawn): the activity change, positive = activation was -19.1%. Take `C=C(C)Cn1c(SCC(=O)Nc2cccc(C)c2)nc2sc3c(c2c1=O)CCCC3`: the activity change, positive = activation was -1.81%. On the same count and under the same terms, in the case of `CC(NC(=O)CN1C(=O)COc2ccc(Cl)cc21)c1ccccc1` (stereo not drawn) it was -1.61%; in that of `Cc1nc2ccn(Cc3cccs3)c(=O)c2cc1C(=O)NCc1ccc(Cl)cc1`, -27.5%; in that of `CCc1cc(=O)oc2c(C)c3c(cc12)CN(CCc1ccccc1)CO3`, -9.23%. Still for that read-out and setting: in the case of `CCc1ccc(NC(=O)c2ccc(F)c(S(=O)(=O)N3CCc4ccccc4C3)c2)cc1` it was inactive: -19.7%. In the case of `Cc1ccc(NS(=O)(=O)c2ccc(-c3cc(C)no3)cc2)c(C)c1`, the activity change, positive = activation is -32.8%. Same read-out and setting: in the case of `CCCOc1ccc(NC(=O)CC2C(=O)N(c3ccccc3)C(=O)N2CCC(C)C)cc1` (stereo not drawn) it was -23.8%; in that of `COc1cccc(CNC(=O)CC(c2ccc(F)cc2)N2Cc3ccccc3C2=O)c1` (stereo not drawn), -16.7%; in that of `Cc1ccc(-c2nnc(Nc3ccc(Br)cc3)c3ccccc23)cc1S(=O)(=O)N1CCCCC1`, -3.11%. Same read-out and setting: the figure for `COc1ccc(-c2cc(C(=O)Nc3c(Cl)cccc3Cl)no2)cc1OC` is 17.7%; for `Cc1ccc(-c2cc(C(=O)Nc3c(C(=O)c4ccccc4)oc4ccccc34)no2)cc1F` it is 0.877%; for `Cc1ccc(CNS(=O)(=O)c2c(C)nc3scc(C)n3c2=O)cc1` it is 3.49%. For `CCOc1ccc(C(=O)Nc2cccc(-c3nc4cc(Cl)cc(Cl)c4o3)c2)cc1`, the activity change, positive = activation was 1.45%. The same measure, in the same setting: the figure for `Cc1ccccc1-c1nc2cc(NC(=O)Cc3ccc(Cl)cc3)ccc2o1` is inactive: -7.09%; for `CC(=O)Nc1ccc(S(=O)(=O)N2CCC(n3c(C(F)(F)F)nc4cccnc43)CC2)cc1` it is -5.31%. On the same count and under the same terms, in the case of `COc1ccc(CNC(=O)c2cc(-c3ccc(OC)cc3)on2)cc1` it was 8.88%; in that of `Cc1ccc(C)c(OCCn2c(-c3ccc(Cl)cc3)nc3ccccc3c2=O)c1C`, -4.81%; in that of `Cc1cc(F)ccc1S(=O)(=O)NCC(c1ccco1)S(=O)(=O)c1cccs1` (stereo not drawn), inactive: -4.77%. As for `CC1Cc2cc(S(=O)(=O)N3CCN(c4ccccc4F)CC3)ccc2N1C(=O)C1CCC1` (stereo not drawn), the activity change, positive = activation was -36.8%. On the same count and under the same terms, in the case of `Cc1cccc(OCCn2c(-c3ccc(Cl)cc3)nc3ccccc3c2=O)c1` it was -8.22%. Same read-out and setting: the figure for `COc1cc(NC(=O)CC2C(=O)N(c3ccc(Cl)cc3)C(=O)N2Cc2cccs2)cc(OC)c1` (stereo not drawn) is -34.1%; for `C=C1[C@H](n2cnc3c(=O)[nH]c(N)nc32)C[C@H](O)[C@H]1CO` it is inactive: -7.72%; for `C=C(C)CSc1nc2sc3c(c2c(=O)n1-c1ccccc1)CC(C(C)C)OC3` (stereo not drawn) it is -1.45%. On the same count and under the same terms, the figure for `Cn1c(=O)c2c(-c3ccccc3)n3c(c2n(C)c1=O)C(c1ccco1)Nc1ccccc1-3` (stereo not drawn) is 3.75%; for `Cc1nn(-c2ccc(N3CCCC3)nn2)c(C)c1CCC(=O)N1CCN(c2ccccc2)CC1` it is -18.8%. As to `COc1ccc2c(C)c(CCC(=O)NCc3ccc(Cl)cc3)c(=O)oc2c1C`, the activity change, positive = activation is -14.3%. Still for that read-out and setting: in the case of `COc1cc2c(-c3cc(Br)ccc3O)nc3c(c(C)nn3-c3ccccc3)c2cc1OC` it was -18.9%. Take `CCc1ccc(S(=O)(=O)Nc2ccc(-c3ccc(N4CCCC4)nn3)cc2)cc1`: the activity change, positive = activation amounted to 5.87%. For the compound `NC(=O)Nc1cc(-c2ccc(CN3CCOCC3)cc2)sc1C(N)=O`, the Potency is active: 21.7 µM. Consider `CCN1CCN(Cc2c(O)ccc3oc(C)c(C(=O)Nc4cccc(C(F)(F)F)c4)c23)CC1`, for which the activity change, positive = activation was -22.7%. As for `CC1CCN(c2ccc(-c3cccc(NS(=O)(=O)c4ccc(F)cc4F)c3)nn2)CC1`, the activity change, positive = activation was 49.1%.

As to `Cc1ccc(Nc2ncnc3sc4c(c23)CCC(C)C4)cc1C` (stereo not drawn), the “activity change, positive = activation” value was inactive: -3.14%.

Regarding `CCc1c(C)c2cc3c(c(C)c2oc1=O)OCN(CCc1ccccc1F)C3`, the activity change, positive = activation was 9.56%. Same read-out and setting: the figure for `Cc1nc(-c2ccc(F)cc2)sc1CCNC(=O)Cc1ccc(F)cc1` is inactive: -34.3%. Regarding `COc1ccc(C(Nc2ccccn2)c2ccc3ccc(C)nc3c2O)cc1C` (stereo not drawn), the “activity change, positive = activation” value is inactive: -30.8%. For `Cc1cccc(N2CCN(C3=C(c4ccccc4)C(=O)c4ccccc43)CC2)c1C`, the activity change, positive = activation is -5.99%. The same measure, in the same setting: in the case of `CC(=O)c1ccc(NS(=O)(=O)c2ccc3c(c2)NC(=O)CCS3)cc1` it was inactive: -19.4%.
